# Results reported in PubChem BioAssay (NCATS).
# Inconclusive means that the source gave no clear call. Such entries were picked first, then a sample of the others. For some of these results: No potency is given beside an inconclusive call; the fits are too rough. Activity calls are given as the source filed them. Unless noted, calls come from the whole dose curve; as a rule, active = well fitted curve in the direction sought with a large enough effect; inconclusive = small, poorly fitted or top-dose-only effect, or another doubt; inactive = no such curve, though single readings can be large; an effect the other way counts as inactive or inconclusive.
# Legend:
# [1] = Confirmatory qHTS for small molecule stabilizers of the endoplasmic reticulum resident proteome: Secreted ER Calcium Modulated Protein (SERCaMP) assay (AID 1508628); note: potency is the fitted concentration of half-maximal effect; nearly all actives have a fitted effect of over 40% in size
# Procedure, shortened: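 SH-SY5Y cells stably expressing GLuc-SERCaMP, treated 16 h with compound (primary 1.53, 7.67, 38.3 uM; confirmation 11 concentrations, up to 76.6 uM), then 100 nM thapsigargin for 4 h. Secreted Gaussia luciferase in medium read by coelenterazine luminescence.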
# [2] = target: Cytochrome P450 1A2 (Homo sapiens) (UniProt P05177); assay: p450-cyp1a2 (AID 410; calls by dose curve; note: potency is the fitted concentration of half-maximal effect)
# Chain of UniProt P05177 (P05177 whole entry, looked up): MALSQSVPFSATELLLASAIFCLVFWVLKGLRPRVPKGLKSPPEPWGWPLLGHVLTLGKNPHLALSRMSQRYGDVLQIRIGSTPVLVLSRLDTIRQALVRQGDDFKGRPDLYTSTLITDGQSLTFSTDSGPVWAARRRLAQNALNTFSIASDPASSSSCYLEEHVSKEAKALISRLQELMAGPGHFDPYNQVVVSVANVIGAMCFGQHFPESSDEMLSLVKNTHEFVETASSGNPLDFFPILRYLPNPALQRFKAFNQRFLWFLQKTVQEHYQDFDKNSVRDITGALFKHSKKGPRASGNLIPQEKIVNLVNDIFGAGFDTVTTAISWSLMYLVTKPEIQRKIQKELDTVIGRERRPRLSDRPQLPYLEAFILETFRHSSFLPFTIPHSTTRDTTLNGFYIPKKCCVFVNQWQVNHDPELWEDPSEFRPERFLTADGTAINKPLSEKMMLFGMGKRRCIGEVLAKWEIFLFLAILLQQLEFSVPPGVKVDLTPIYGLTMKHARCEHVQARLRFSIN
# Procedure, shortened: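 20nM CYP1A2 with 100uM Luciferin-ME (at Km) in 100mM KPO4; compound preincubated 10 min, NADPH regeneration added, 60 min at room temperature. Luciferin quantified by luminescence after detection reagent; normalized to 57 uM furafylline.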
# [3] = target: Mitogen-activated protein kinase 10 (Mus musculus) (UniProt Q61831); assay: JNK3 AlphaScreen Assay (AID 530; active = well fitted curve in either direction with a large enough effect, not every such curve was filed as active; inconclusive = small, poorly fitted or top-dose-only effect, or another doubt;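 note: kinase came from lysate of stimulated human HepG2 cells; signal reports phosphorylation of biotinylated GST-cJun 1-79 at Ser73 with 10 µM ATP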; note: potency is the fitted concentration of half-maximal effect; for activity change, negative = inhibition: % is set by controls: 0 for no effect and ±100 for the full control effect); conditions: JNK3 lysate, c-Jun phosphorylation; activity change, negative = inhibition: at 57.1 µM (top of the series)
# Procedure, shortened: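 Inhibitors reduce antibody binding to phosphorylated biotin-cJun, lowering AlphaScreen luminescence. Lysates from HepG2 cells pre-activated by IL-1beta plus TNF-alpha supplied JNK3; compounds were titrated.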
# [4] = target: Glucocorticoid receptor (Homo sapiens) (UniProt P04150); assay: GR-GFP Redistribution (AID 450;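 active = compounds whose dose series gives a full or clear partial fitted curve of increased nuclear translocation; inconclusive = weak partial curve or effect only at the top dose; inactive = no dose-dependent translocation response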; note: potency is the fitted concentration of half-maximal effect); conditions: U2OS GR-GFP nuclear translocation, laser cytometry, 2 h
# Chain of UniProt P04150 (P04150 whole entry, looked up): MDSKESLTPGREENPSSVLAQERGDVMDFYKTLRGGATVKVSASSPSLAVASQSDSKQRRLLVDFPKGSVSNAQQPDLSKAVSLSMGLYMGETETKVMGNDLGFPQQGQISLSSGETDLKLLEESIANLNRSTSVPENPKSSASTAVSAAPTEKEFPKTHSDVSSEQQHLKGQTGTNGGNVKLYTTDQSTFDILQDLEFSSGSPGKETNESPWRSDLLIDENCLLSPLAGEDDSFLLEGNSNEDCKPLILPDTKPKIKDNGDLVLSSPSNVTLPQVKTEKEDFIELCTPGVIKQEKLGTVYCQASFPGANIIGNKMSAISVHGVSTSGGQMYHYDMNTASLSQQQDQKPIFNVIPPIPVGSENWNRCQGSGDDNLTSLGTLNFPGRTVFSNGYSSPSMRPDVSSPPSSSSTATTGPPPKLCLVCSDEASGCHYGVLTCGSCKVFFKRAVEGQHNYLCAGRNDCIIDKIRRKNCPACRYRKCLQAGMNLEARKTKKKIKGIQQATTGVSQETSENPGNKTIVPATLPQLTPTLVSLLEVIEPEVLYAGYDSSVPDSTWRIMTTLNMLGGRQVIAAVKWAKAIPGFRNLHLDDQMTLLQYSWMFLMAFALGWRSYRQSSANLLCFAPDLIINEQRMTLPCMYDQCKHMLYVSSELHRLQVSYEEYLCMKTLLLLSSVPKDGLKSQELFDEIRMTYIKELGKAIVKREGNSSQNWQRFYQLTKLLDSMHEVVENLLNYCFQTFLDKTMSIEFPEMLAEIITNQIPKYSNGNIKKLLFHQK
# [5] = target: Cytochrome P450 2C9 (Homo sapiens) (UniProt P11712); assay: qHTS Assay for Inhibitors and Substrates of Cytochrome P450 2C9 (AID 883); note: potency is the fitted concentration of half-maximal effect; nearly all actives have a fitted effect of over 60% in size
# Chain of UniProt P11712 (P11712 whole entry, looked up): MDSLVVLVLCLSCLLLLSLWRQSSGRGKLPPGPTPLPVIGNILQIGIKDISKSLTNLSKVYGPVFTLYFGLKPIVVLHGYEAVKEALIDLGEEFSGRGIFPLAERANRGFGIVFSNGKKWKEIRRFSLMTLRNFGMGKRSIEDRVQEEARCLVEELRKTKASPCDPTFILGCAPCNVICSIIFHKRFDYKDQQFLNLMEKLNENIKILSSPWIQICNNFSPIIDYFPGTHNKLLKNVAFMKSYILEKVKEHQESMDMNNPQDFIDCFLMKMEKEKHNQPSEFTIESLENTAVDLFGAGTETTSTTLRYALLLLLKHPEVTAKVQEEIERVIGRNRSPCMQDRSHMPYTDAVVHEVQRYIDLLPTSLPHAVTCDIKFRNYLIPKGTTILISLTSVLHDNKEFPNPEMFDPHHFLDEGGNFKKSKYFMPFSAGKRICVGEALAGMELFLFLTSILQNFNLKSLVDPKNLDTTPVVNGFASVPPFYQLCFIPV
# Procedure, shortened: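 Human CYP2C9 (10nM) hydroxylated Luciferin-H (100uM, at its KM) to luciferin in 25mM KPO4. Compound was preincubated 10 min at 37C, then NADPH regeneration started a 60 min reaction at 37C. Luminescence was read after detection reagent, normalized to 57uM sulphaphenazole.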
# [6] = target: Dual specificity protein kinase CLK4 (Homo sapiens) (UniProt Q9HAZ1); assay: qHTS Assay for Inhibitors of CDC-like Kinase 4 (ADP-FP Assay) (AID 1795); note: nearly all actives have a fitted effect of over 60% in size; note: potency is the fitted concentration of half-maximal effect; for activity change, negative = inhibition: % is set by controls: 0 for no effect and ±100 for the full control effect
# Chain of UniProt Q9HAZ1 (Q9HAZ1 whole entry, looked up): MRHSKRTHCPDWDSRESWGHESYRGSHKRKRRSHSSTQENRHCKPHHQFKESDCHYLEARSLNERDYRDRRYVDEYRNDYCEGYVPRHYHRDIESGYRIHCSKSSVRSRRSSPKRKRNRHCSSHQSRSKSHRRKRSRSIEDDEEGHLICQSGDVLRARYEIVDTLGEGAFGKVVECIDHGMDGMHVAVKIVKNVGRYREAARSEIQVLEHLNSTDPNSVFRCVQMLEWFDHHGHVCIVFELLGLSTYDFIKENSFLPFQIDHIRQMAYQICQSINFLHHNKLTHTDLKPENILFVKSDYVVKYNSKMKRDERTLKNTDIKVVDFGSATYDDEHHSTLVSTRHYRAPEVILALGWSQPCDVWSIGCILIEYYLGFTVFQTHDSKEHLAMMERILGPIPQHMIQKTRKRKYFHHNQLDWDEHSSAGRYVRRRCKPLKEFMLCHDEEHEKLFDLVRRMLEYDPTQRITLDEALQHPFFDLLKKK
# Procedure, shortened: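 Recombinant human Clk4 (6.25 nM) phosphorylated RS repeat peptide (100 uM) with 1 uM ATP in Tris pH 7.5/MgCl2/EGTA/DTT/Triton buffer for one hour. ADP was quantified by Transcreener competitive fluorescence polarization against an ADP calibration curve.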
# [7] = Primary qHTS for inhibitors of nuclear receptor binding SET domain protein 2 (NSD2) in an isogenic RCH-ACV NSD2 p.E1099K mutant (9B) (AID 1645876); note: potency is the fitted concentration of half-maximal effect; nearly all actives have a fitted effect of over 70% in size
# [8] = Primary qHTS for inhibitors of nuclear receptor binding SET domain protein 2 (NSD2) in an RCH-ACV wild type WT cells (2C) (AID 1645877); note: potency is the fitted concentration of half-maximal effect; nearly all actives have a fitted effect of over 70% in size
# [9] = target: Rap guanine nucleotide exchange factor 3 (Homo sapiens) (UniProt O95398); assay: Confirmatory qHTS for antagonist of cAMP-regulated guanine nucleotide exchange factor 3 (EPAC1) (AID 1645880); conditions: EPAC1 Rap1B-BODIPY-GDP exchange, fluorescence; activity, negative = inhibition: at 115 µM (top of the series); note: potency is the fitted concentration of half-maximal effect; nearly all actives have a fitted effect of over 55% in size
# Chain of UniProt O95398 (O95398 whole entry, looked up): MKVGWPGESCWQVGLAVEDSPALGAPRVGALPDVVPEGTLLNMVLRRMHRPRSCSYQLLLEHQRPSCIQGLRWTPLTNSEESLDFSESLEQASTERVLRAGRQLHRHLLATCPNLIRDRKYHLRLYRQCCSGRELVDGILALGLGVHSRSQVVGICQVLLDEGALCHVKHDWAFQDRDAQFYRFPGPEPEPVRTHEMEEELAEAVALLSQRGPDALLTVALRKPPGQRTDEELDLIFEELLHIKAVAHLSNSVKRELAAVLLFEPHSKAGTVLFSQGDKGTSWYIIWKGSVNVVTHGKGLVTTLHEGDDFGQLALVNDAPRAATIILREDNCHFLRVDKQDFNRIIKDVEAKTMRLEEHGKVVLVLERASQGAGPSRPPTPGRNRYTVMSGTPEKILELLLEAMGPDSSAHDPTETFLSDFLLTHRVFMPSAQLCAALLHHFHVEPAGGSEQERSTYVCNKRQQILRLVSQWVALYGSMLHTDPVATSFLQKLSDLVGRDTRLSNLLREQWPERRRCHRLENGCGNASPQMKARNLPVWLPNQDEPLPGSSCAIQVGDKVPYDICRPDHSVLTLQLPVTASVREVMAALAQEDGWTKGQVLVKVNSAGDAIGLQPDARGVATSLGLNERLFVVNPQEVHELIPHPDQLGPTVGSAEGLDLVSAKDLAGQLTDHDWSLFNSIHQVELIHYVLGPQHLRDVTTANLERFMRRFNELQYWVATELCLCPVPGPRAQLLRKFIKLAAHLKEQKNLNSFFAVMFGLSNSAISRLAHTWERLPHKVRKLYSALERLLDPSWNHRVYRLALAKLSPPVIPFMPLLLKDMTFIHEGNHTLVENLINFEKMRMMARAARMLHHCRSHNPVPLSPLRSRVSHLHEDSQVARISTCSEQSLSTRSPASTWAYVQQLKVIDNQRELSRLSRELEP
# Procedure, shortened: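 Nucleotide exchange uses 100 nM EPAC1, 250 nM RAP1B-BODIPY-GDP and 50 uM GDP, with compounds in a concentration-titration series. After 5 min at room temperature, fluorescence (480 nm ex/540 nm em) is read every 5 min for 30 min. Data are normalized to control ATA and DMSO.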
# [10] = target: Rap guanine nucleotide exchange factor 4 (Homo sapiens) (UniProt Q8WZA2); assay: Confirmatory qHTS for antagonist of cAMP-regulated guanine nucleotide exchange factor 4 (EPAC2) (AID 1645885); conditions: activity change, negative = inhibition: at 12.7 µM (top of the series) unless noted; note: potency is the fitted concentration of half-maximal effect; nearly all actives have a fitted effect of over 25% in size
# Chain of UniProt Q8WZA2 (Q8WZA2 whole entry, looked up): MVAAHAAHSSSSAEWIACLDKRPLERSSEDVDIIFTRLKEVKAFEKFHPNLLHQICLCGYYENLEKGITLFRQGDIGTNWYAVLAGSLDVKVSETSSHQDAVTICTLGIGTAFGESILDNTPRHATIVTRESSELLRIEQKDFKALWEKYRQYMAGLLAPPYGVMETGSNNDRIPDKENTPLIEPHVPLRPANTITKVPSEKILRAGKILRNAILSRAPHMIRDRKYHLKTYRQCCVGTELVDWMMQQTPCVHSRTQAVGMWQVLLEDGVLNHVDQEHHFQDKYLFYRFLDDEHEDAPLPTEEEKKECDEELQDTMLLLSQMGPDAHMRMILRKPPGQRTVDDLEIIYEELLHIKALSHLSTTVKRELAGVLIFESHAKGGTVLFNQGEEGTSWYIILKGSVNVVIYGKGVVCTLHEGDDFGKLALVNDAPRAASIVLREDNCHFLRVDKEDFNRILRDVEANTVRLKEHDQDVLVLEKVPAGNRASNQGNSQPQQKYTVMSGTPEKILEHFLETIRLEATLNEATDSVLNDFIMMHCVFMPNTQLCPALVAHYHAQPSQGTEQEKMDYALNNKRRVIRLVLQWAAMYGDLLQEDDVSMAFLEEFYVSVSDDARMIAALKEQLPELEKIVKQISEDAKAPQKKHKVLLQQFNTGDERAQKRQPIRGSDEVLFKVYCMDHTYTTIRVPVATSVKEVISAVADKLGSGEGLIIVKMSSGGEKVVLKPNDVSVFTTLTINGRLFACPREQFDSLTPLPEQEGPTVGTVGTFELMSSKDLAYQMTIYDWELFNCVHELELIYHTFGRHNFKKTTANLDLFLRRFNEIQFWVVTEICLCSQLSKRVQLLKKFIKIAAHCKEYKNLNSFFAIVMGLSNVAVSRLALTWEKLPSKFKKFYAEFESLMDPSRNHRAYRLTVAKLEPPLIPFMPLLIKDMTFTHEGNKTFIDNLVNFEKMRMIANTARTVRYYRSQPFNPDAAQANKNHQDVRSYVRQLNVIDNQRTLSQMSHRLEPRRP
# [11] = NFAT Signaling Pathway (AID 444; active = well fitted curve in either direction with a large enough effect, not every such curve was filed as active; inconclusive = small, poorly fitted or top-dose-only effect, or another doubt;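 note: carbachol stimulus at about its EC50 of 1 µM final; % is set by controls: 0 for no effect and ±100 for the full control effect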); conditions: Jurkat NFAT-bla M1, carbachol, beta-lactamase ratio, 5 h; at 7.69 µM (top of the series) unless noted
# Procedure, shortened: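 Jurkat cells carrying an NFAT-driven β-lactamase reporter and co-transfected muscarinic M1 receptor were treated with compound plus carbachol (1 uM final, an EC50 level) for 5 h at 37 °C. CCF4 loading followed for 1 h at RT; 460/530 nm ratio gave %activity.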
# [12] = Cell Viability qHTS for small molecule stabilizers of the endoplasmic reticulum resident proteome (AID 1508629); conditions: cell viability counter-screen, 100 nM thapsigargin for final 4 h;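 note: potency is the fitted concentration of half-maximal effect; compound exposure about 46 h in total before the viability read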
# [13] = Primary qHTS for small molecule stabilizers of the endoplasmic reticulum resident proteome: Secreted ER Calcium Modulated Protein (SERCaMP) assay (AID 1508630); conditions: SH-SY5Y GLuc-SERCaMP (Gaussia luciferase released on ER calcium loss) secretion, thapsigargin, luminescence; activity change, negative = inhibition: at 38.4 µM (top of the series) unless noted; note: potency is the fitted concentration of half-maximal effect
# Procedure, shortened: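 GLuc-SERCaMP-expressing SH-SY5Y cells, pretreated 16 h with compound, are challenged with thapsigargin to empty ER calcium stores; after 4 h, coelenterazine is added directly to the medium and luminescence is imaged.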
# Tags give direction and shape of the fitted curve.
smiles,measurement,setting,value
O=C(NCc1ccncc1)C(=O)Nc1nc(C23CC4CC(CC(C4)C2)C3)cs1,Potency,[1],"inconclusive [inhibitor, partial curve, poor fit]"
FC(F)(F)c1ccccc1-c1nc(NC2CCNCC2)c2ccccc2n1,Potency,[2],inconclusive [decreasing]
same,Potency,[3],inactive
O=c1c(-c2ccc(F)cc2)nc2cnc(N3CCNCC3)nc2n1-c1ccccc1,Potency,[4],inconclusive [single point]
same,Potency,[3],"inconclusive [activator, partial curve]"
COCCn1c(=O)c(-c2cc(F)cc(F)c2)nc2cnc(N3CCNCC3)nc21,Potency,[5],active: 1.26 µM
COc1ccc(Oc2ncc3nc(CCc4ccccc4)c(=O)n(C[C@H]4CCCO4)c3n2)cc1,Potency,[6],inactive
c1cncc(-c2nc(N3CCNCC3)c3ccccc3n2)c1,Potency,[6],"inconclusive [falling, full curve]"
CS(=O)(=O)CCNCc1nc(-c2ccc3ncnc(Nc4ccc(OCc5cccc(F)c5)c(Cl)c4)c3c2)cs1,Potency,[7],"inconclusive [inhibitor, single point]"
same,Potency,[8],"inconclusive [inhibitor, single point]"
Cc1ccccc1-c1nccc(Nc2ccc(F)cc2)n1,Potency,[9],"inconclusive [inhibitor, partial curve, poor fit]"
same,Potency,[10],"inconclusive [inhibitor, single point]"
O=c1cnc2cnc(N3CCNCC3)nc2n1Cc1ccc(F)cc1,"activity change, negative = inhibition",[11],inconclusive: -37.7% [inhibitor]
same,Potency,[1],"inconclusive [inhibitor, partial curve, poor fit]"
same,Potency,[12],"inconclusive [rising, full curve, poor fit]"
same,Potency,[13],"inconclusive [inhibitor, partial curve, poor fit]"
